Entries after “also recorded” stand apart in the source; their conditions may differ. For some assays here: At least one read-out could not be matched to a standard name with certainty. For at least one compound, name, drawing or mass did not settle the structure.
Tests used:
[1] = test system: 3T3-L1 adipocytes; experiment: glucose consumption (remaining glucose) in culture medium of 3T3-L1 adipocytes; format: cell-based; conditions: for glucose absorption activity of adipocytes 3T3-L1 (anti-hyperglycemic ability): FIG. 1, medium glucose 300 mg/dl, remaining glucose after 24 hours; for glucose absorption activity of adipocytes 3T3-L1 (anti-hyperglycemic ability) / remaining glucose concentration in culture medium after 24 hours: 30 μg/ml; for remaining glucose concentration in culture medium after 24 hours: culture medium of 3T3-L1 adipocytes after 24 hours, means ± SD, N = 3, control 310 ± 4.0
Description: After precursor adipocytes 3T3-L1 were induced as the matured adipocytes, culture medium with glucose (concentration of 300 mg/dl) and drugs were added, and the concentration of the remaining glucose in the culture medium were measured after 24 hours.
Adipose tissues are major sites for postprandial glucose uptake. Therefore, in vitro anti-diabetic screening model based on measuring glucose consumption after 24 hours in culture medium of 3T3-L1 adipocytes was developed. […] Accordingly, 60 chalcone derivatives with and without substitutions on A-ring were examined in our developed model. […] Structure-activity relationship (SAR) analyses data are also determined.

[2] = test system: 3T3-L1 adipocytes; experiment: lipid droplet formation in 3T3-L1 adipocytes (Oil-Red O staining); format: cell-based; conditions: insulin 3.2×10^−7 M, RSZ, PIO, chalcone derivatives 30 μg/ml, DMEM 25 mM D-glucose, 4 days
Description: After two days of differentiation, 3T3-L1 cells were treated without (control) or with insulin (3.2×10^−7 M), RSZ (30 μg/ml), PIO (30 μg/ml), and chalcone derivatives (30 μg/ml) in DMEM containing 25 mM D-glucose. After 4 days, lipid droplets were observed by Oil-Red O staining (data not shown).

SMILES | remaining glucose concentration in culture medium after 24 hours [1] [mg/dL] | also measured
COc1ccc(/C=C/C(=O)c2ccccc2O)cc1 [Compound 1, (E)-1-(2-hydroxyphenyl)-3-(4-methoxyphenyl)prop-2-en-1-one] |  | glucose absorption activity of adipocytes 3T3-L1 (anti-hyperglycemic ability) [1]: not significantly better than that in compound 9; also recorded: did not show the higher glucose absorption in cells
COc1cccc(/C=C/C(=O)c2ccccc2O)c1 [Compound 4, (E)-1-(2-hydroxyphenyl)-3-(3-methoxyphenyl)prop-2-en-1-one] |  | glucose absorption activity of adipocytes 3T3-L1 (anti-hyperglycemic ability) [1]: not significantly better than that in compound 9
COc1ccc(/C=C/C(=O)c2ccccc2Br)cc1 [Compound 12, (E)-1-(2-bromophenyl)-3-(4-methoxyphenyl)prop-2-en-1-one] | 230 ± 8.7 | 
COc1ccc(/C=C/C(=O)c2ccccc2I)cc1 [Compound 26, (E)-1-(2-iodophenyl)-3-(4-methoxyphenyl)prop-2-en-1-one] | 210 ± 3.7 | 
COc1ccc(/C=C/C(=O)c2ccccc2Cl)cc1 [Compound 27, (E)-1-(2-chlorophenyl)-3-(4-methoxyphenyl)prop-2-en-1-one] | 234 ± 24.4 | 
O=C(/C=C/c1ccccc1)c1cc(Cl)ccc1O [Compound 36, (E)-1-(5-chloro-2-hydroxyphenyl)-3-phenylprop-2-en-1-one] | 236 ± 17.5 | 
O=C(/C=C/c1ccccc1)c1ccccc1I [Compound 51, (E)-1-(2-iodophenyl)-3-phenylprop-2-en-1-one] | 223 ± 13.8 | 
COc1cccc(/C=C/C(=O)c2ccccc2I)c1 [Compound 52, (E)-1-(2-iodophenyl)-3-(3-methoxyphenyl)prop-2-en-1-one] | 210 ± 2.0 | 
CCc1ccc(CCOc2ccc(CC3SC(=O)NC3=O)cc2)nc1 (centres unmarked) [Pioglitazone, pioglitazone, reference compound] |  | glucose consumption ([1]; Experiment 6, insulin 3.2×10^−7 M, RSZ, PIO 30 μg/ml, DMEM 25 mM D-glucose): promote glucose consumption; formation of lipid droplets [2]: increase the lipid droplets in adipocytes
CN(CCOc1ccc(CC2SC(=O)NC2=O)cc1)c1ccccn1 (centres unmarked) [Rosiglitazone, rosiglitazone, reference compound] |  | formation of lipid droplets [2]: increase the lipid droplets in adipocytes

From patent US9085520B2, “Composition for treating diabetes and metabolic diseases and a preparation method thereof” (KAOHSIUNG MEDICAL UNIVERSITY, priority 2011, dated 2015)
